Laboratory results reported in US4939133A, “N-substituted-2-hydroxy-α-oxo-benzeneacetamides and pharmaceutical compositions having activity as modulators of the arachidonic acid cascade” (Warner-Lambert Company, priority 1985, dated 1990).
“And” between values parts separate entries of the source, which are not always exact repeats. Equal entries are not always repeated. Structures can show the parent of a compound that is named as a salt. The name of at least one read-out is uncertain.

Molecular target: T1, human leukocyte 5-lipoxygenase (Homo sapiens, UniProt P09917)
T1 construct: endogenous in cells; host or cells: leukocytes from fresh blood of normal adult men
T1 sequence (P09917 1-674): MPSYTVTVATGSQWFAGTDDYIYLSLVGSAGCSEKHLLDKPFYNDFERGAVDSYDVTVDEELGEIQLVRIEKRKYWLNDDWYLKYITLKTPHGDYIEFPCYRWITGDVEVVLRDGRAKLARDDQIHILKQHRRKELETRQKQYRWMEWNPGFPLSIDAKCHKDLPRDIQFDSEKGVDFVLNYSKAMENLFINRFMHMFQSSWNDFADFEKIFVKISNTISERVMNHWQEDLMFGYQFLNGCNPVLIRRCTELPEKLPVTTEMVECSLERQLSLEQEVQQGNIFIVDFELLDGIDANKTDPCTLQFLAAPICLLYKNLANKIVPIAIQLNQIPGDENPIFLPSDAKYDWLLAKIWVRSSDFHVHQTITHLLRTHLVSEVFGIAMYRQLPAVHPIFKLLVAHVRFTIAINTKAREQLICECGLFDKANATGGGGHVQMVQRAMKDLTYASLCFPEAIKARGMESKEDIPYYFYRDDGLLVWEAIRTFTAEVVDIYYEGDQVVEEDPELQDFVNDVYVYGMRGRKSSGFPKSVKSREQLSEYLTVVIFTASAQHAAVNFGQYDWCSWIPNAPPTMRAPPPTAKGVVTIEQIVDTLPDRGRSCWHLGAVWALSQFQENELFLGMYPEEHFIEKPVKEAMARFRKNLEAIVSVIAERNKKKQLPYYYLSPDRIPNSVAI
Test: 5-Lipoxygenase inhibition in human leukocytes, 5-HETE formation (5LOA1, 5LOA in Table 6)
Assay type: cell-based
Source text: To Evaluate the Effect of Each Compounds as a 5-Lipoxygenase Inhibitor in Comparison to Standard Reference Agents in Human Leukocytes (5LOAl)
The purpose of this assay is to evaluate the activity of each compound as an inhibitor of human leukocyte 5-lipoxygenase.
Arachidonic acid and calcium ionophore A23187 are obtained from Sigma (St. Louis, MO). Silica gel plates, GF are obtained from Analtech (Newark, DE). Arachidonic acid, (1-^14 C) and 5-HETE (^3 H), 5-(S)-hydroxy-6-trans, 8,11,14-cis eicosatetraenoic acid, are obtained from New England Nuclear (Boston, MA). Six percent Dextran-70 in 0.9% NaCl is obtained from Cuffer Labs (Berkeley, CA).
Preparation of Leukocytes
Fresh blood from normal adult men who had not received any drugs for at least the previous five days is obtained by the Community Research Clinic (WL/PD) using venipuncture and collected into heparinized vacuotainer tubes. To every 100 ml of pooled blood is added 25 ml of dextran solution (6% dextran -70 in 0.9% sodium chloride containing 3% dextrose) and this is mixed gently in a plastic cylinder. The mixture is left to stand at room temperature for at least 90 minutes. The upper layer which is rich in leukocytes and platelets is then carefully decanted into 50 ml plastic tubes and centrifuged at about 100×g for eight minutes in and IEC centrifuge and rotor number 269 (about 600 rpm). The supernatant fluid is discarded and the pellet is resuspended in 10 ml of 0.87% ammonium chloride for exactly two minutes. This procedure is to lyse completely contaminating red blood cells. Leukocytes are then separated by centrifugation for ten minutes. The pellet is washed three times by suspension in 20 ml PBS (sodium chloride, 7.1 g; Na2 HPO4, 1.15 g; KH2 PO4,0.2 g, and KCl, 0.2 g/L) and centrifuged as before. The final pellet is suspended in PBS containing 0.87 mM CaCl2. Viability of the cells is then checked using trypan blue exclusion method and is found to be over 90%.
5-Lipoxygenase Enzyme Assay
Leukocyte cells in suspension (0.98 ml) are incubated with or without test compounds for five minutes at 37° C. in a shaking water bath. At this time a […] mixture is perpared per 1 ml of cell suspension: 100 mM arachidonic acid, 1 μl, 0.05 μCi ^14 C-arachidonic acid in 5 μl; 1 mM calcium ionophore A23187, 10 μl (1). This mixture is added and the incubation continued for five minutes. The reaction is stopped by adding four volumes of absolute ethanol and the mixture is kept in ice for 30 minutes. The floculated precipitate is separated by centrifugation at about 37,000×g for 20 minutes (Beckman Instruments rotor number 40). The alcohol extract is taken to dryness under a stream of nitrogen and the residue is dissolved in 100-200 μl absolute ethanol. At the time any turbidity is removed by centrifugation. An aliquot (25-50 μl) is applied onto 20×20 cm silica gel TLC plate and developed using the following solvent system: diethyl ether, petroleum ether (2040°C.),acetic acid (50:50: 1 v/v). Zones of 1 cm apart are scraped from the TLC plate and transferred to mini-vials. Methanol (0.5 ml) is added to dissolve the radioactivity adsorbed to the silica gel and scintillation fluid (H. P., Beckman), 5 ml is then added and vials are counted in a liquid scintillation counter. A sample of ^3 H-5-HETE is applied and used for the identification of the formed 5-HETE. Total radioactivity in the test as well as the control samples are normalized and the amount of 5-HETE present is calculated accordingly.
IC50 values are defined as the concentrations of test agents which caused a 50% inhibition of the formation of 5-HETE as compared to control and are determined by inspection of the concentration-response curves.

## CCCCCCCCCCc1ccc(NC(=O)c2ccc(OC)cc2O)cc1 [Example 2]
1.00 E -5 M
  % Inhibition (5LOA): 11.3%
4.00 E -5 M
  % Inhibition (5LOA): 13.3%

## CCCCCCCCCCc1ccc(NC(=O)c2ccc(Cl)cc2O)cc1 [Example 7]
1.00 E -5 M
  % Inhibition (5LOA): 16.4%
4.00 E -5 M
  % Inhibition (5LOA): 18.9%

## CCCCCCCCCCc1ccc(NC(=O)c2cccc(-c3ccccc3)c2O)cc1 [Example 9, [1,1'-Biphenyl]-3-carboxamide, N-(4-decylphenyl)-2-hydroxy]
1.00 E -5 M
  % Inhibition (5LOA): 20.9%
2.00 E -5 M
  % Inhibition (5LOA): 21.3%
5.00 E -6 M
  % Inhibition (5LOA): 6.5%

## COc1cc(CCc2ccc(NC(=O)c3ccc(C)cc3O)cc2)ccc1O [Example 26]
2.00 E -5 M
  % Inhibition (5LOA): 7.6%
5.00 E -6 M
  % Inhibition (5LOA): 0.6%

## CCCCCCCCCCc1ccc(NC(=O)c2cc(N)ccc2O)cc1 [Example 32, Benzamide, N-(4-n-decylphenyl)-2-hydroxy-5-amino·hydrochloride]
1.00 E -4 M
  % Inhibition (5LOA): 16.4% and 11.5%

## CCCCCCCCCCc1ccc(NC(=O)c2ccc([N+](=O)[O-])cc2O)cc1 [Example 35]
2.00 E -5 M
  % Inhibition (5LOA): 6.0%
5.00 E -6 M
  % Inhibition (5LOA): 1.7%

## Cc1ccc(C(=O)Nc2ccc(CCc3ccc(O)c(O)c3)cc2)c(O)c1 [Example 45, N-[4-[2-(3,4-Dihydroxyphenyl)ethyl]phenyl]-2-hydroxy-4-methylbenzamide]
2.00 E -5 M
  % Inhibition (5LOA): 46.0%
5.00 E -6 M
  % Inhibition (5LOA): 32.9%

## CCCCCCCCCCc1ccc(NC(=O)c2cc3ccccc3cc2O)cc1 [Example 49, 2-Naphthalenecarboxamide, N-(4-decylphenyl)-3-hydroxy]
2.00 E -5 M
  % Inhibition (5LOA): 17.9%
5.00 E -6 M
  % Inhibition (5LOA): 11.6%

## COc1ccc(CCc2ccc(NC(=O)C(=O)c3cccc(C(C)(C)C)c3O)cc2)cc1OC [Example 54, N-[4-[2-(3,4-dimethoxyphenyl)ethyl]phenyl]-3-(1,1-dimethylethyl)-2-hydroxy-α-oxo-benzeneacetamide]
1.00 E -5 M
  % Inhibition (5LOA): 6.5%
2.00 E -5 M
  % Inhibition (5LOA): 6.0%
4.00 E -5 M
  % Inhibition (5LOA): 14.5%

## O=C(Nc1ccc(Cl)c(Cl)c1)C(=O)c1ccccc1O [Example 56]
1.50 E -5 M
  % Inhibition (5LOA): +20.3%
2.00 E -5 M
  % Inhibition (5LOA): 13.3%
2.50 E -5 M
  % Inhibition (5LOA): +2.5%

## O=C(Nc1ccc(Cl)cc1)C(=O)c1ccccc1O [Example 57]
1.00 E -5 M
  % Inhibition (5LOA): 7.2%
2.00 E -5 M
  % Inhibition (5LOA): 5.0%
5.00 E -6 M
  % Inhibition (5LOA): 4.6%
